# Measured values published in PubChem BioAssay AID1345082 (National Center for Advancing Translational Sciences (NCATS), 2018).
# Among all 94,000 compounds or so, about 4,000 (4.3%) were called active. The inconclusive results got no clear call from the source; some entries with a clear call stand among them for comparison. The call rests on the fitted dose curve; in most records, active means well fitted inhibition curve with a large enough effect; inconclusive means small, poorly fitted or top-dose-only effect; inactive means no such curve, though single readings can be large or run the other way. Potencies beside an inconclusive call are fits to weak or partial responses and may not hold up.
# Test: Cytotoxic Profiling in NIH 3T3 Cell Line of Diverse Libraries Using Quantitative High-Throughput Screening; further: nearly all actives have a fitted effect of over 55% in size
# Details: NIH 3T3 viability, CellTiter-Glo ATP luminescence, 48-72 h; activity change, negative = cytotoxicity: at 96.7 µM (top of the series); series mostly up to 96.7 µM
# Summary of the method: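 NIH 3T3 cells at 400 cells/well received 23 nL of compound by pintool and were incubated 48 or 72 h at 37 °C. Viability was read as ATP-coupled CellTiter-Glo luminescence.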
# On the % scale 0 is the no-effect control and ±100 the full control effect; potency means the concentration at half of the fitted maximal effect; tags describe the fitted curve by direction and shape.
Compound,Potency,"activity change, negative = cytotoxicity",outcome
CCOC(=O)C1c2c(OC)ccc3c2C(=CC(C)(C)CO3)CN1C (configuration not stated),"inconclusive: 31.6 µM [inhibitor, full curve]",,
O=C1NCc2ccccc2CC12CCN(Cc1c[nH]c3ccccc13)CC2,"inconclusive: 70.8 µM [inhibitor, single point]",,
C[C@@]12CO[C@@H](Cc3ccccc3)O[C@@H]1CC[C@]1(C)C2CC[C@@H](O)[C@H]1CC(=O)NCc1ccco1 (some centres not stated),"inconclusive: 44.7 µM [inhibitor, partial curve]",,
CC(C)c1noc(CC2CCN(C(=O)c3cccs3)CC2)n1,"inconclusive: 35.5 µM [inhibitor, partial curve, poor fit]",,
Cc1cccc(CNC(=O)c2ccc(Cn3ccn4nc5c(c4c3=O)CCCC5)cc2)c1,"inconclusive: 35.5 µM [inhibitor, partial curve]",,
CC(C)(C)NC(=O)NCc1nnc2n1C(C(=O)NCc1ccc(Cl)cc1)CC2 (configuration not stated),,inactive: -1.1%,
CC(=O)N1CCN(C(=O)c2cc(CC(C)C)[nH]c(=O)n2)CC(O)C1 (configuration not stated),,inactive: -19.2%,
N#Cc1cccc(NC(=O)N[C@H]2[C@H](O)[C@@H](N3CCC(Cc4ccccc4)CC3)[C@@H]3OC[C@H]2O3)c1,"inconclusive: 100 µM [inhibitor, single point]",,
COc1ccccc1C(=O)N1CC(CNc2ccccc2)C2(C1)CN(c1ccccc1)C2 (configuration not stated),"inconclusive: 12.6 µM [inhibitor, full curve]",,
COC(=O)[C@H](NC(=O)[C@@H]1[C@@H](NC(=O)Nc2cccc(SC)c2)CCN1C(=O)C=C(C)C)C(C)C,"inconclusive: 79.4 µM [inhibitor, partial curve, poor fit]",,
COCc1noc(CC2CCOC3(CCN(C(=O)c4cc5ccccc5[nH]4)CC3)C2)n1 (configuration not stated),"inconclusive: 50.1 µM [inhibitor, partial curve, poor fit]",,
COc1ccccc1C(=O)N1CCCn2nc(C)c(-c3cccnc3N3CCOCC3)c21,"inconclusive: 100 µM [inhibitor, partial curve]",,
COc1ccccc1C(=O)N1CC(CNC(=O)C2CC2)C2(C1)CN(c1ccccc1)C2 (configuration not stated),"inconclusive: 89.1 µM [inhibitor, partial curve, poor fit]",,
CCc1ccc(CN2CCN(c3ccc(C(N)=O)cn3)CC2)nc1,"inconclusive: 56.2 µM [inhibitor, partial curve, poor fit]",,
CC(=O)NCCC(=O)N1CCC2(CC1)CN(C(=O)Cc1ccccc1)CCO2,,inactive: -5.76%,
O=C1CCN(CC(O)COCc2ccco2)c2ccc(F)cc2CN1Cc1ccco1 (configuration not stated),"inconclusive: 50.1 µM [inhibitor, single point]",,
O=C1NC2(CCN(CC3CCCC3)CC2)Oc2ccccc21,,inactive: -21.9% [at 138 µM],
CCN1C[C@H]2COc3cc(OC)ccc3[C@H]2N(C(=O)c2ccc(C)cc2)CCC1=O,"inconclusive: 70.8 µM [inhibitor, single point]",,
CNC(=O)C(C)(C)N1CCC[C@H]1C(=O)N1CCC(C)CC1,,inactive: -25.3% [at 138 µM],
O=C(c1ccoc1)N1CCC2(CC1)NC(=O)N(c1ccccc1Cl)N2,"inconclusive: 44.7 µM [inhibitor, partial curve, poor fit]",,
Cc1ncoc1C(=O)N1CCOC(Cc2cccc(C(F)(F)F)c2)C1 (configuration not stated),"inconclusive: 44.7 µM [inhibitor, partial curve, poor fit]",,

Compound,Potency,"activity change, negative = cytotoxicity",outcome
O=C(NCCc1ccccc1F)c1ccc2nnc(-c3cccc(C(F)(F)F)c3)n2c1,active: 35.5 µM,,
Cc1ccc(C(=O)N2CCC3(CC2)C(=NC2CCCCC2)NC(=O)N3c2cc(F)cc(F)c2)cc1,active: 31.6 µM,,
COc1ccc(C(=O)N2CCc3ccc(C(=O)NCc4ccccc4C)cc32)cc1,"inconclusive: 39.8 µM [inhibitor, partial curve, poor fit]",,
CN1CCCC[C@]2(C[C@H](C(=O)O)[C@H](c3ccco3)N2C(=O)c2ccco2)C1=O,"inconclusive: 50.1 µM [inhibitor, partial curve, poor fit]",,
CCOC(=O)c1cccc(NC(=O)c2cnc(-c3ccccc3)nc2-c2ccncc2)c1,"inconclusive: 39.8 µM [inhibitor, partial curve]",,
O=C(CCNC(=O)c1cnccn1)NC1CCCc2c1[nH]c1ccc(Cl)cc21 (configuration not stated),"inconclusive: 50.1 µM [inhibitor, partial curve, poor fit]",,
Cc1nn(-c2ccccc2)c2c1C(C1CC1)N(C1CN(C(=O)Nc3ccc(Cl)cc3)C1)C2=O (configuration not stated),,inactive: -11%,
O=C1Cc2c(-c3ccc(F)cc3F)n[nH]c2CN1CC1CC1,"inconclusive: 20 µM [inhibitor, full curve]",,
COCc1nc2nc(-c3ccccc3)c(-c3ccc([S+](C)(=O)[O-])cc3)cc2n1C,active: 89.1 µM,,
CCN(Cc1c(F)cccc1Cl)C(=O)CCc1c(C)nn(C)c1C,"inconclusive: 25.1 µM [inhibitor, full curve]",,
COc1ccccc1C(=O)N1CCC(n2cc(-c3nc(-c4ccccc4)no3)nn2)C1 (configuration not stated),"inconclusive: 35.5 µM [inhibitor, partial curve, poor fit]",,
Cn1nccc1OCc1cn2c(=O)n(C)cc(-c3ccc(O)c(F)c3)c2n1,"inconclusive: 39.8 µM [inhibitor, partial curve, poor fit]",,
CCc1cccc(NC(=O)CC2CCCN(c3cnn(CC4CC4)c(=O)c3)C2)c1 (configuration not stated),active: 39.8 µM,,
O=S(=O)(N[C@H]1CO[C@H]2[C@@H]1OC[C@H]2O)c1ccc(Cl)cc1,,,inactive [at 174 µM]
CC(=O)NC1CCCN(Cc2cccc(-c3ccc(C)c(Cl)c3)c2)C1 (configuration not stated),active: 35.5 µM,,
COc1cccc(CNC(=O)c2nc3sccn3c2-c2ccc(F)cc2)c1,"inconclusive: 50.1 µM [inhibitor, partial curve, poor fit]",,
CN1CCC(N2CC[C@H](c3nnc(-c4ccccc4F)o3)C2)CC1,,inactive: -25.7% [at 174 µM],
CCOC(=O)CN1CCCC1c1ccc(C(=O)NCCn2ccnc2)s1 (configuration not stated),,inactive: -28.4%,
Cc1cc(C(=O)N2CCC3(CC2)CC(N(Cc2ccccc2)C2CC2)CCO3)n(C)n1 (configuration not stated),"inconclusive: 28.2 µM [inhibitor, full curve]",,
O=C(Nc1ccccc1)c1cnc2n1CCN(Cc1ccc3[nH]ccc3c1)CC2,active: 89.1 µM,,
CSCC(=O)N[C@H]1CCN2C(=O)c3cc(-c4cccc(C(F)(F)F)c4)ccc3NC(=O)[C@H]12,"inconclusive: 50.1 µM [inhibitor, partial curve, poor fit]",,

Compound,Potency,"activity change, negative = cytotoxicity",outcome
O=C(c1cccc(Br)c1)N1CCCN(c2ccnc3ccnn23)CC1,"inconclusive: 44.7 µM [inhibitor, partial curve, poor fit]",,
O=C1N[C@@H]2CCN(C(=O)c3ccc(C(F)(F)F)cc3)[C@@H]2C(=O)N1c1ccc(Oc2ccccc2)cc1,"inconclusive: 70.8 µM [inhibitor, single point]",,
CN1CCCN(C(=O)c2cc(F)cc(F)c2)c2ccccc21,"inconclusive: 11.2 µM [inhibitor, partial curve, poor fit]",,
Cc1cccc(-c2cn[nH]c2C2CCN(C(=O)c3ccc4nccnc4c3)CC2)c1,"inconclusive: 44.7 µM [inhibitor, partial curve, poor fit]",,
Cc1ccc(-c2cc(N3CCCN(C(=O)c4sccc4C)CC3)n[nH]2)cc1C,"inconclusive: 44.7 µM [inhibitor, partial curve, poor fit]",,
O=C(c1cccc(F)c1)N1CCN(c2cc(-c3ccc(Cl)cc3)[nH]n2)CC1,"inconclusive: 10 µM [inhibitor, partial curve, poor fit]",,
O=C(NC1CCCN(c2cc(-c3ccc(Cl)cc3)[nH]n2)C1)c1ccncc1 (configuration not stated),"inconclusive: 50.1 µM [inhibitor, single point]",,
Cc1ccc(-c2cccc(CN3CCCC3C(=O)N3CCC(C#N)CC3)c2)cc1Cl (configuration not stated),active: 31.6 µM,,
COc1ccc(CN2C(=O)[C@@H]3C[C@@H](O)CN3C3(CN(C(C)C)C3)C2=O)cc1,,,inactive [at 174 µM]
CC(Oc1ccccc1)C(=O)N1CC(Oc2ccc(-c3nc(-c4ccccc4)no3)cc2)C1 (configuration not stated),"inconclusive: 44.7 µM [inhibitor, partial curve]",,
COc1ccc(CN2CCC3(CC(c4ccc(OC)cc4)=NO3)C2)cc1 (configuration not stated),"inconclusive: 50.1 µM [inhibitor, partial curve, poor fit]",,
COC1CN(C(=O)Nc2cccc(C#N)c2)CCC(=O)N(C)c2ccccc21 (configuration not stated),"inconclusive: 35.5 µM [inhibitor, partial curve]",,
Cc1ccc(-c2cn[nH]c2C2CCCN(C(=O)CCCn3cnnn3)C2)cc1 (configuration not stated),"inconclusive: 50.1 µM [inhibitor, partial curve, poor fit]",,
CCCNC(=O)NC[C@@H]1C=C(C)[C@H](Cc2nc3nc(OC)ccc3[nH]2)C[C@H]1C(C)C,active: 89.1 µM,,
CC1=C(C(=O)Nc2ccccc2)C(c2cccc(C)c2)N2C(CC(=O)NCC(C)C)=CSC2=N1 (configuration not stated),"inconclusive: 70.8 µM [inhibitor, partial curve, poor fit]",,
CCCCn1c(=O)c(C(=O)NC2CCCC2)nc2cccnc21,,inactive: -37.1% [at 138 µM],
CN(C)C(=O)C1CCc2nnc(-c3cccc(C(F)(F)F)c3)n21 (configuration not stated),,inactive: -12.1% [at 138 µM],
O=C(CN1CC2CC(C1)[C@H]1CCCC(=O)N1C2)NCC1CC1 (some centres not stated),,inactive: -3.5%,
O=c1cc(-c2cnccn2)oc2c(-c3cn[nH]c3)nccc12,"inconclusive: 10 µM [inhibitor, full curve, poor fit]",,
COc1ccccc1CN1C(=O)COC[C@@H]1[C@H](O)c1ccc(NC(=O)c2ccccc2)cc1,"inconclusive: 50.1 µM [inhibitor, partial curve, poor fit]",,
